{
  "source": "PubChem BioAssay AID485281",
  "about": "(National Center for Advancing Translational Sciences (NCATS), 2010)",
  "note": "Among all 350,000 compounds or so, about 260 (0.074%) were called active. The shares of active, inactive and inconclusive entries below differ from those in the screen. Calls come from the whole dose curve; as a rule, active = well fitted inhibition curve with a large enough effect; inconclusive = small, poorly fitted or top-dose-only effect; inactive = no such curve, though single readings can be large or run the other way. Where the call is inconclusive, the potency comes from a doubtful curve fit. Potency is the fitted concentration of half-maximal effect; tags give direction and shape of the fitted curve.",
  "data": [
    {"biological_target": "Ferritin light chain (Equus caballus) (UniProt P02791)", "sequence (P02791 whole entry, looked up)": "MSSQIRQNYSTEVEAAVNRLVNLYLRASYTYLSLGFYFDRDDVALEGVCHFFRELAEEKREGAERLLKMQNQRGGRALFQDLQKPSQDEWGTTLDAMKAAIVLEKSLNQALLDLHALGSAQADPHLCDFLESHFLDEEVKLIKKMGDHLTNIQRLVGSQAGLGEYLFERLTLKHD", "experiment": "qHTS Assay for Identification of Novel General Anesthetics; note: nearly all actives have a fitted effect of over 20% in size", "settings": "apoferritin/1-aminoanthracene competitive binding, fluorescence; series mostly up to 77.5 µM", "outline": "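Probe: 1-aminoanthracene (50% saturated, PBS). Protein: horse-spleen apoferritin, 10 uM. Incubation: 10 min, room temperature. Detection: 380 nm excitation, 535 nm emission. Analysis: normalized response, four-parameter Hill.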", "values": [
      {"smiles": "Oc1cccc(C2c3[nH]c4ccccc4c3CCN2Cc2ccoc2)c1", "note": "(centres undefined)", "Potency": "inactive"},
      {"smiles": "CCOC(=O)c1c(C)[nH]c(C(=O)COc2ccc3c(c2)OCO3)c1C", "Potency": "inconclusive: 15.8 µM [inhibitor, partial curve]"},
      {"smiles": "CCOc1ccc(N2C(=O)c3cccnc3C2Nc2ccc(C)cc2)cc1", "note": "(centres undefined)", "Potency": "inconclusive: 25.1 µM [inhibitor, partial curve]"},
      {"smiles": "c1ccc(-n2cnc3cc(NCc4cccs4)ccc32)cc1", "Potency": "inactive"},
      {"smiles": "O=C(Nn1cnnc1)C(c1ccccc1)c1ccccc1", "Potency": "inactive"},
      {"smiles": "CCn1c(/C=C\\c2ccccc2C)nc2ccccc2c1=O", "Potency": "inconclusive: 25.1 µM [inhibitor, partial curve]"},
      {"smiles": "Cc1cccc(-n2nnc(C(=O)NCc3ccccc3Cl)c2N)c1", "Potency": "inconclusive: 8.91 µM [inhibitor, full curve, poor fit]"},
      {"smiles": "N=c1n(CCN2CCCCC2)c2ccccc2n1CC(O)c1ccc(Cl)c(Cl)c1", "note": "(centres undefined)", "Potency": "inconclusive: 50.1 µM [inhibitor, single point]"},
      {"smiles": "CC1CCN(CCCNC(=O)c2ccc(CSCc3cccc(Cl)c3)o2)CC1", "Potency": "inconclusive: 17.8 µM [inhibitor, partial curve]"},
      {"smiles": "C/C(=N\\NC(=O)c1cccs1)c1c(O)cc(C)oc1=O", "Potency": "inactive"},
      {"smiles": "O/N=C/C1=C(Cl)c2ccccc2CC1", "Potency": "inconclusive: 15.8 µM [inhibitor, partial curve]"},
      {"smiles": "O=C(NC(=S)Nc1ccccc1O)c1ccc(Cl)cc1Cl", "Potency": "inconclusive: 28.2 µM [inhibitor, partial curve]"},
      {"smiles": "Nc1nnnn1CC(=O)N/N=C/c1cc([N+](=O)[O-])ccc1O", "Potency": "inactive"},
      {"smiles": "c1ccc(-c2noc(CC3CCCCC3)n2)nc1", "Potency": "inconclusive: 28.2 µM [inhibitor, partial curve]"},
      {"smiles": "O=C(Nc1ccc2c(c1)OCO2)C1CCCN(c2nc3ccccc3s2)C1", "note": "(centres undefined)", "Potency": "inconclusive: 7.08 µM [inhibitor, partial curve]"},
      {"smiles": "C=C(C)CNC(=O)c1ccc2nc(Cc3ccc(OC)cc3)oc2c1", "Potency": "inconclusive: 25.1 µM [inhibitor, partial curve]"},
      {"smiles": "COc1ccccc1/C=C/c1nc(S(=O)(=O)c2ccccc2)c(N2CCC(C(N)=O)CC2)o1", "Potency": "inconclusive: 22.4 µM [inhibitor, single point]"},
      {"smiles": "O=C(O)c1cc(NC(=O)c2ccccc2F)cc(NC(=O)c2ccccc2F)c1", "Potency": "inactive"},
      {"smiles": "CC1CCN(CC(=O)N2CCCc3c2c(=O)oc2ccc(OCc4ccccc4)cc32)CC1", "Potency": "inconclusive: 2.82 µM [inhibitor, full curve]"},
      {"smiles": "CNC(=O)c1[nH]nc2c1CCc1cc(OC)ccc1-2", "Potency": "inactive"},
      {"smiles": "O=C(CSc1nc(-c2ccc(Cl)cc2)cs1)Nc1cccc([N+](=O)[O-])c1", "Potency": "inconclusive: 12.6 µM [inhibitor, partial curve]"},
      {"smiles": "CCOc1ccc(S(=O)(=O)N/N=C\\c2ccc3c(c2)OCO3)cc1", "Potency": "inconclusive: 25.1 µM [inhibitor, partial curve]"},
      {"smiles": "Nc1sccc1C(=O)c1ccc(Cl)cc1", "Potency": "inactive"},
      {"smiles": "O=C(NC(=S)Nc1ccc(F)c(Cl)c1)C1CC1", "Potency": "inconclusive: 28.2 µM [inhibitor, partial curve]"},
      {"smiles": "C/C(CC(=O)Nc1ccc(OCc2ccccc2)cc1)=N\\NC(=O)C(=O)Nc1ccc(C)c(Cl)c1", "Potency": "inconclusive: 15.8 µM [inhibitor, partial curve]"},
      {"smiles": "NC(=O)CC(NC(=O)c1cccc(Br)c1)c1ccc(NC2CCN(Cc3ccccc3)CC2)c([N+](=O)[O-])c1", "note": "(centres undefined)", "Potency": "inconclusive: 31.6 µM [inhibitor, partial curve]"},
      {"smiles": "O=C(NCCCCc1ccccc1)c1cccc([N+](=O)[O-])c1", "Potency": "inconclusive: 25.1 µM [inhibitor, single point]"},
      {"smiles": "C=CCc1ccccc1Oc1cc(F)nc(N)n1", "Potency": "inconclusive: 39.8 µM [inhibitor, single point]"},
      {"smiles": "O=C(NC(=S)Nc1ccccc1N1CCCC1)c1ccc([N+](=O)[O-])cc1", "Potency": "inconclusive: 20 µM [inhibitor, partial curve]"},
      {"smiles": "O=C(c1ccccc1F)N1CCCc2ccccc21", "Potency": "inconclusive: 25.1 µM [inhibitor, partial curve]"},
      {"smiles": "COc1ccc(C(=O)N2CCCC(Nc3ccc(C)c(C)c3)C2)cc1", "note": "(centres undefined)", "Potency": "inconclusive: 17.8 µM [inhibitor, partial curve]"},
      {"smiles": "COC(=O)c1ccccc1NC(=O)c1ccc(COc2ccccc2)o1", "Potency": "inconclusive: 14.1 µM [inhibitor, partial curve]"},
      {"smiles": "CC(/C=N/Nc1nnc2c(n1)[nH]c1ccccc12)=C\\c1ccco1", "Potency": "inconclusive: 39.8 µM [inhibitor, partial curve]"},
      {"smiles": "CC(Sc1nc2ccccc2c(=O)n1CCc1ccc(S(N)(=O)=O)cc1)C(=O)NC(N)=O", "note": "(centres undefined)", "Potency": "inactive"},
      {"smiles": "O=C(CNC(=O)c1ccc2c(c1)OCO2)N/N=C(Br)/C=C/c1ccccc1", "Potency": "active: 7.08 µM"},
      {"smiles": "Cc1ccc([N+](=O)[O-])cc1NCC(=O)NN", "Potency": "inconclusive: 15.8 µM [inhibitor, partial curve]"},
      {"smiles": "COc1ccc(OC)c(C2=C/C(=C/c3ccccn3)C(=O)O2)c1", "Potency": "inconclusive: 15.8 µM [inhibitor, partial curve]"},
      {"smiles": "O=C(CCC1CCCCC1)NCc1cccs1", "Potency": "inconclusive: 39.8 µM [inhibitor, single point]"},
      {"smiles": "CN(CCCC1CCCC1)C(=O)CCc1nnc(-c2ccccc2)o1", "Potency": "inconclusive: 35.5 µM [inhibitor, single point]"},
      {"smiles": "C[C@]12CC[C@@H](O)C[C@@H]1CC[C@@H]1[C@@H]2CC[C@]2(C)C=CC[C@@H]12", "Potency": "inactive"},
      {"smiles": "CC(C)c1ccccc1NS(=O)(=O)N(C)C", "Potency": "inconclusive: 28.2 µM [inhibitor, partial curve]"},
      {"smiles": "Cn1c(Sc2ccc(Cl)cc2)c(C=O)c2ccccc21", "Potency": "inactive"},
      {"smiles": "O=C(Nc1cccc(NC(=O)c2cccs2)c1)c1ccc([N+](=O)[O-])o1", "Potency": "inconclusive: 39.8 µM [inhibitor, partial curve]"},
      {"smiles": "O=c1ccc2cc(S(=O)(=O)N3CCN(c4cc(Cl)ccc4Cl)CC3)ccc2o1", "Potency": "inconclusive: 5.62 µM [inhibitor, partial curve]"}
    ]}
  ]
}
